Assay [1] deals with T1, biotin-labeled human interleukin-2 receptor alpha subunit (ACROBiosystems) (human, UniProt P01589 22-213, biotin-labeled (site not stated)).
T1 construct: Immobilized on a streptavidin (SA) chip at about 100 RU
T1 sequence (looked up): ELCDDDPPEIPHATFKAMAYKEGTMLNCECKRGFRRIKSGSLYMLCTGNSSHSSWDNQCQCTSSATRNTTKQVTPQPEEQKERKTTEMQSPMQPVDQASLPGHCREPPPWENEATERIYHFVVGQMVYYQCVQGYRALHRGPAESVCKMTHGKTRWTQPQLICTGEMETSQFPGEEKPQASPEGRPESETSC
Description: SPR (Biacore T200); biotinylated receptor on SA chip, analyte flowed; relative to aldesleukin = 100%. An excerpt:
(§1) In order to measure the binding affinities of each of the interleukin-2 analog long-acting conjugates obtained in Example 7 for the interleukin-2 alpha and beta receptors, surface plasma resonance (SPR, BIACORE T200, GE Healthcare) was used.
(§2) Specifically, biotin-labeled human interleukin-2 receptor alpha and beta subunits (ACROBiosystems) each were immobilized to a streptavidin biosensor chip (SA chip, Cytiva) at about 100 RU and 500 RU, and the interleukin-2 analog long-acting conjugates and aldesleukin, diluted in HBS-EP+ buffer (Cytiva, BR100669) by a two-fold dilution method, were allowed to flow at a flow rate of 20 μL/min. After the binding process for 3 minutes, only HBS-EP+ buffer was allowed to flow for 3 minutes at the same flow rate to induce the dissociation of the interleukin-2 analog long-acting conjugates or aldesleukin from the interleukin-2 receptors. The binding affinity was calculated through the association constant and dissociation constant thus obtained. The binding affinity was evaluated according to the 1:1 binding fitting model in the Biaevaluation program.
(§3) Table 5 below summarizes the relative binding affinity (%) of the prepared interleukin-2 analog long-acting conjugates for each of the alpha and beta receptors compared with the binding affinity of aldesleukin. In Table 5, each corresponding long-acting conjugate is expressed by using the interleukin-2 analog number constituting the same (e.g., the long-acting conjugate of interleukin-2 analog 21 is expressed as “interleukin-2 analog conjugate 21”).
A general note: In SPR one partner is held on a chip, and binding of the other changes the refractive index at the surface.

The target of assay [2] is T2, biotin-labeled human interleukin-2 receptor beta subunit (ACROBiosystems) (human, UniProt P14784 27-239, biotin-labeled (site not stated)).
T2 construct: Immobilized on a streptavidin (SA) chip at about 500 RU
T2 sequence (looked up): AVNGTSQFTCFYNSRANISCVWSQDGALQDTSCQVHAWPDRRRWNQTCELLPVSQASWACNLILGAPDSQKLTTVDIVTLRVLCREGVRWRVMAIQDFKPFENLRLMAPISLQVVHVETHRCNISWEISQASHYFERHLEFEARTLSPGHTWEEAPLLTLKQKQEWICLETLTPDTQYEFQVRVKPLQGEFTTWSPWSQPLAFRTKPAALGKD
Described as above.
Text: as §1, §2, §3

Assay [3] has as its target T1, biotin-labeled human interleukin-2 …. The assay is described as follows: SPR (Biacore T200); biotinylated receptor on SA chip.

B1: Interleukin-2 analog conjugate 41 (other)
chain 1: PTSSSTKKTQLQLEHLLLDLQMILNGINNYKNPKLTRMLTFKFYMPKKATELKHLQCLEEELKPLEEVLNLAQSKNFHFDPRDVVSNINVFVLELKGSETTFMCEYADETATIVEFLNRWITFSQSIISTLT
chain 2: [gap - human IgG4 Fc]
modifications: nitrogen of the N-terminal proline of one Fc chain linked to the opposite end of the 3.4 kDa PEG linker; N-terminus linked to one end of a 3.4 kDa PEG linker
notes: also called long-acting conjugate of interleukin-2 analog 41
In the case of B1, the “Relative binding affinity (%)” value in assay [1] amounted to 50.8%; in assay [2] it was 5480%.

B2: Interleukin-2 analog conjugate 21 (other)
chain 1: PTSSSTKKTQLQLEHLLLDLQMILNGINNYKNPKLTAMLTKKFYMPKKATELKHLQCLEEELKPLEEVLNLAQSKNFHFDPRDVVSNINVFVLELKGSETTFMCEYADETATIVEFLNRWITFSQSIISTLT
chain 2: [gap - human IgG4 Fc]
modifications: nitrogen of the N-terminal proline of one Fc chain linked to the opposite end of the 3.4 kDa PEG linker; N-terminus linked to one end of a 3.4 kDa PEG linker
notes: also called long-acting conjugate of interleukin-2 analog 21; interleukin-2 analog-3.4K PEG-immunoglobulin Fc region conjugate
As to B2, in assay [3], the binding result was “no binding”. Besides, the “Relative binding affinity (%)” value in assay [2] worked out at 5430%.

B3: Interleukin-2 analog conjugate 52 (other)
chain 1: PTSSSTKKTQLQLEHLLLDLQMILNGINNYKNPKLTAMLTKKFYMPKKATELKHLQCLEEELKPLEEVLNLAQSKNFHFDPRDLISNINVFVLELKGSETTFMCEYADETATIVEFLNRWITFSQSIISTLT
chain 2: [gap - human IgG4 Fc]
modifications: nitrogen of the N-terminal proline of one Fc chain linked to the opposite end of the 3.4 kDa PEG linker; N-terminus linked to one end of a 3.4 kDa PEG linker
notes: also called long-acting conjugate of interleukin-2 analog 52
For the molecule B3, the binding result in assay [3] is reported as “no binding”. Also, the “Relative binding affinity (%)” value in assay [2] stood at 2270%.

B4: Interleukin-2 analog conjugate 104 (other)
chain 1: PTSSSTKKTQLQLEHLRLDLEMILNGINNYKNPKLTRMLTFKFYMPKKATELKHLQCLEDELKPLEEVLNLAQSKNFHFEPRDVVSNINVFVLELKGSETTFMCEYADETATIVEFLNRWITFSQSIISTLT
chain 2: [gap - human IgG4 Fc]
modifications: nitrogen of the N-terminal proline of one Fc chain linked to the opposite end of the 3.4 kDa PEG linker; N-terminus linked to one end of a 3.4 kDa PEG linker
As for B4, the “Relative binding affinity (%)” value came out at 81% in assay [1] and 13400% in assay [2].

B5: Interleukin-2 analog conjugate 105 (other)
chain 1: PTSSSTKKTQLQLEHLRLDLEMILNGINNYKNPKLTRMLTFKFYMPKKATELKHLQCLEEELKPLEDVLNLAQSKNFHFEPRDVVSNINVFVLELKGSETTFMCEYADETATIVEFLNRWITFSQSIISTLT
chain 2: [gap - human IgG4 Fc]
modifications: nitrogen of the N-terminal proline of one Fc chain linked to the opposite end of the 3.4 kDa PEG linker; N-terminus linked to one end of a 3.4 kDa PEG linker
notes: also called long-acting conjugate of interleukin-2 analog 105
For B5, the “Relative binding affinity (%)” value came out at 113% in assay [1] and 13300% in assay [2].

B6: Interleukin-2 analog conjugate 86 (other)
chain 1: PTSSSTKKTQLQLEHLRLDLEMILNGINNYKNPKLTRMLTFKFYMPKKATELKHLQCLEEELKPLEEVLNLAQSKNFHFEPRDVVSNINVFVLELKGSETTFMCEYADETATIVEFLNRWITFSQSIISTLT
chain 2: [gap - human IgG4 Fc]
modifications: nitrogen of the N-terminal proline of one Fc chain linked to the opposite end of the 3.4 kDa PEG linker; N-terminus linked to one end of a 3.4 kDa PEG linker
notes: also called long-acting conjugate of interleukin-2 analog 86
With B6, the “Relative binding affinity (%)” value amounted to 65.2% in assay [1] and 15400% in assay [2].

B7: aldesleukin (interleukin-2 analog 1) (ligand)
chain: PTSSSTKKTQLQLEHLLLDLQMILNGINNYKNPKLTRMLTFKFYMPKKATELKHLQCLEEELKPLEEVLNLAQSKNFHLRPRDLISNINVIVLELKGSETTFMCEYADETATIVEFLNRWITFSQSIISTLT
notes: also called Analog 01
B7: the “Relative binding affinity (%)” value in assay [1] and in assay [2] was 100% each time.

(Values after patent US20260242436A1 (HANMI PHARM, published 2026).)
